Assay results published in PubChem BioAssay AID504832 (National Center for Advancing Translational Sciences (NCATS), 2011).
In all, about 310,000 compounds went through this assay and about 18,000 (5.8%) were called active. The shares of active, inactive and inconclusive entries below differ from those in the screen. The call rests on the fitted dose curve; in most records, active means well fitted inhibition curve with a large enough effect; inconclusive means small, poorly fitted or top-dose-only effect, or another doubt; inactive means no such curve, though single readings can be large or run the other way. Potencies of inconclusive entries are left out as doubtful fits.

assay: Primary qHTS for delayed death inhibitors of the malarial parasite plastid, 48 hour incubation; details: P. falciparum luciferase growth in erythrocytes; series mostly up to 28.7 µM; activity change, negative = inhibition: at the top concentration
In short: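 Parasite viability was followed by luminescence of a genomically integrated firefly luciferase. Cultures held 0.1% parasitemia at 2% hematocrit (final), incubated under 5% CO2 at 37 C.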
On the % scale 0 is the no-effect control and ±100 the full control effect; potency means the concentration at half of the fitted maximal effect; tags describe the fitted curve by direction and shape.

| Structure (SMILES) | Potency | activity change, negative = inhibition |
| --- | --- | --- |
| COC(=O)c1cc(NC2c3ccccc3C(=O)N2c2cccnc2)cc(C(=O)OC)c1 (stereo unspecified) | inconclusive [inhibitor, partial curve, poor fit] |  |
| COc1ccc(OC)c(C(C(=O)NC2CCCCC2)N(C(=O)c2snc(C(N)=O)c2N)c2ccccc2OC)c1 (stereo unspecified) | active: 2.62 µM |  |
| C=CCn1c(COc2ccccc2F)nnc1SCC(=O)c1c[nH]c2ccccc12 |  | inactive: -23.6% |
| CCC(C)N(C(=O)CSc1nnc2ccccn12)C1CCS(=O)(=O)C1 (stereo unspecified) |  | inactive: -15.7% |
| O=C(N/N=C/c1ccc2c(c1)OCO2)c1ccc(NC(=O)c2ccccc2Cl)cc1 | inconclusive [inhibitor, single point] |  |
| CN(C)C(=O)COc1ccc2c(-c3ccccc3)cc(=O)oc2c1 |  | inactive: 32.7% |
| O=C(CCc1ccc(S(=O)(=O)NC2CCCCC2)cc1)N(Cc1ccccc1)Cc1ccccc1 | inconclusive [inhibitor, partial curve, poor fit] |  |
| C=C1C(=O)O[C@H]2C[C@@H](C)[C@@H]3C=CC(=O)[C@@]3(C)C[C@H]12 | active: 5.22 µM |  |
| CC(/C=C/c1ccco1)=N\NC(=O)c1cc(C)[nH]n1 |  | inactive: 4.62% |
| CCCN(CC(=O)Nc1ccccc1OC)C(=O)CSc1ccc(Br)cc1C | inconclusive [inhibitor, single point] |  |
| Cc1ccc(NS(=O)(=O)c2ccc3[nH]c(=O)[nH]c3c2)cc1 | inconclusive [inhibitor, partial curve, poor fit] |  |
| COc1ccc(C(=O)Nc2cc3c(cc2N2CCOCC2)n(C)c(=O)n3C)cc1OC | inconclusive [inhibitor, partial curve] |  |
| COc1ccc(C)cc1NC(=O)CSc1nnc(COc2ccc(Cl)cc2)n1Cc1ccco1 | inconclusive [inhibitor, single point] |  |
| COc1ccccc1C(=O)N/C(=C\c1cn(C)c2ccccc12)C(=O)N1CCOCC1 | inconclusive [inhibitor, partial curve, poor fit] |  |
| O=C(Nc1cccnc1)c1ccc(Cl)c(Cl)c1 | inconclusive [inhibitor, partial curve, poor fit] |  |
| Clc1ccc(CN2CCN(/N=C/c3ccco3)CC2)cc1 | inconclusive [inhibitor, single point] |  |
| COc1ccc(OCc2cc(C(=O)N3CCC(c4ccccc4)CC3)no2)c(Cl)c1 |  | inactive: -4.94% |
| CCn1cc(C(c2ccccc2)C(C(C)=O)[N+](=O)[O-])c2ccccc21 (stereo unspecified) | inconclusive [inhibitor, full curve, poor fit] |  |
| CC(C)COc1ccc(C(=O)N2C(=O)c3ccc(N)cc3C2=O)cc1 |  | inactive: 50.9% |
| CCCCC[C@H](O)/C=C/[C@H]1CCC(=O)[C@@H]1CCCCCCC(=O)N1CCCCC1CO (stereo partly specified) | active: 9.28 µM |  |
| O=c1c(Cc2c(F)cccc2Cl)c(O)ccn1CCCN1CCOCC1 |  | inactive: 2.66% |
| CCOC(=O)N1CCN(Cc2nc(-c3ccccc3)no2)CC1 |  | inactive: 41% |
| COc1ccc(Cl)cc1NC(=S)N(Cc1cccnc1)Cc1ccco1 | active: 10.4 µM |  |

| Structure (SMILES) | Potency | activity change, negative = inhibition |
| --- | --- | --- |
| COc1cc(NC(=O)C2CCCN(S(=O)(=O)c3ccc4c(c3)CCCN4C(C)=O)C2)cc(OC)c1 (stereo unspecified) | inconclusive [inhibitor, partial curve, poor fit] |  |
| Cc1ccc(-c2nc(CCNC(=O)c3ccco3)cs2)cc1 | inconclusive [inhibitor, single point] |  |
| O=C(c1ccncc1)N1CCN(S(=O)(=O)c2ccccc2Br)CC1 | inconclusive [inhibitor, partial curve] |  |
| CC1CCCCC1NC(=S)Nc1ccc(SC(F)F)cc1 (stereo unspecified) |  | inactive: -77% |
| CCN1/C(=C2\C(=O)N(C)C(=S)N2c2ccccc2)C=Cc2ccccc21 | inconclusive [inhibitor, single point] |  |
| CC(=O)c1ccc(NC(=O)COC(=O)c2nc(Cl)ccc2Cl)cc1 |  | inactive: 4.05% |
| Cc1ccc(NC(=O)c2cccc3c2C(=O)N(C2CCCCC2)C3)c(Cl)c1 | inconclusive [inhibitor, full curve] |  |
| Cc1sc2ncnc(N3CCCCC3C)c2c1C (stereo unspecified) |  | inactive: 7.68% |
| Cc1ccc(/C=C(\C#N)C(=O)NC(C)c2ccccc2)o1 (stereo unspecified) |  | inactive: 36% |
| CCn1c(=O)c(=O)[nH]c2cc(C(=O)NCc3ccc(F)cc3)ccc21 |  | inactive: 3.48% |
| C/C=C/c1ccc(OCc2cc(=O)n3cc(C)ccc3n2)c(OC)c1 | inconclusive [inhibitor, single point] |  |
| O=C(Cc1cccs1)N(CC1CCCO1)C1(C(=O)NC2CCCCC2)CCCCC1 (stereo unspecified) | inconclusive [inhibitor, partial curve] |  |
| c1ccc(C(c2ccccc2)N2CCN(C(c3ccccn3)c3nnnn3C3CCCC3)CC2)cc1 (stereo unspecified) |  | inactive: -11.9% |
| COc1cc(/C=N/NC(=O)c2cccc([N+](=O)[O-])c2)ccc1OC(=O)c1ccco1 |  | inactive: -10.4% |
| COC(=O)c1cc(=O)n(CCc2ccccc2)c(=Nc2ccc(F)cc2)s1 | inconclusive [inhibitor, single point] |  |
| O=C(O/N=C1\CCCc2ccccc21)c1cccc(Cl)c1 |  | inactive: 35.4% |
| CNc1cc(NS(=O)(=O)c2ccc(N)cc2)nc(NC)n1 | inconclusive [inhibitor, partial curve, poor fit] |  |
| COCCNC(=O)C(c1ccc(C)cc1)N(C(=O)CCC(=O)Nc1ccccn1)c1ccc(F)cc1 (stereo unspecified) |  | inactive: 0% |
| Cc1ccc(S(=O)(=O)N2CCN(C)CC2)c(C)c1N(C)S(=O)(=O)c1ccc(Cl)cc1 | inconclusive [inhibitor, single point] |  |
| Cc1ccc(N=C2SC(C(=O)NCCc3ccccc3)CC(=O)N2C)cc1C (stereo unspecified) |  | inactive: -12.9% |
| NC(=O)c1cc([N+](=O)[O-])ccc1NCc1ccc(O)cc1 | inconclusive [inhibitor, single point] |  |
| Cc1ccc(Sc2c(CO)c(-c3ccccc3)nn2C)cc1 | inconclusive [inhibitor, single point] |  |
| COc1cc(NC(=O)C2CCN(S(=O)(=O)c3cccc4nonc34)CC2)cc(OC)c1 | inconclusive [inhibitor, partial curve, poor fit] |  |
